Measured values reported in article PMC3199943, “Screening the MayBridge Rule of 3 Fragment Library for Compounds That Interact with the Trypanosoma brucei myo-Inositol-3-Phosphate Synthase and/or Show Trypanocidal Activity” (Molecular Biology International, 2011).
Structures can show the parent of a compound that is named as a salt. Where two headings read alike, the source gives them in different places.

System: cultured bloodstream T. brucei (strain 427)
Test: microbe, parasite or virus in culture
Conditions: Trypanosoma brucei
[1] = read-out: T. brucei Alamar Blue
[2] = read-out: T. brucei Alamar Blue, Supplementary Table 1, compound 0.5 mM, percentage of controls in the absence of compound, mean ± SD (n=3) or SE (n=2)
[3] = read-out: T. brucei Alamar Blue (% survival)

| Structure (SMILES) | viability at 500 µM [1] [%] | other results |
| --- | --- | --- |
| COc1ccccc1CCC(=O)O [compound 452, 3‐(2‐methoxyphenyl)propanoic acid] | 49.2 ± 15 | – |
| CN1CCN(C)C1=O [compound 35, 1,3‐dimethylimidazolidin‐2‐one] | 92.2 ± 13 | – |
| O=C(O)c1ccc2cc[nH]c2c1 [compound 271, 1H‐indole‐6‐carboxylic acid] | – | viability at 500 µM [2]: 90.5 ± 2.4% |
| Cc1cccc(C(N)=O)c1C [compound 176, 2,3‐dimethylbenzamide] | 107 ± 12.1 | – |
| CCCc1nccs1 [compound 82, 2‐propyl‐1,3‐thiazole] | 81.1 ± 11.9 | – |
| COC(=O)c1ccccc1Cl [compound 352, methyl 2‐chlorobenzoate] | 93.2 ± 9.2 | – |
| NCc1ccccc1N1CCOCC1 [compound 571, 2‐morpholinobenzylamine] | 65.8 ± 9.1 | – |
| NC(=S)CSc1ccccc1 [compound 472, 2‐(phenylthio)ethanethioamide] | 43 ± 11 | – |
| Cc1cccc(C)c1C#N [compound 94, 2,6‐dimethylbenzonitrile] | 86 ± 16.6 | – |
| COC(=O)c1ccccc1C [compound 183, methyl 2‐methylbenzoate] | 99 ± 14.4 | – |
| CC(=O)c1nccs1 [compound 79, 1‐(1,3‐thiazol‐2‐yl)ethan‐1‐one] | 114 ± 19.2 | – |
| Cc1cc(N)on1 [compound 10, 3‐methylisoxazol‐5‐amine] | 67.7 ± 8.7 | – |
| O=C(O)c1cccc(N2CCCCC2)c1 [compound 663, 3‐piperidinobenzoic acid] | 78.6 ± 22.6 | – |
| O=C(O)C(O)c1ccccc1 (centres unmarked) [compound 202, 2‐hydroxy‐2‐phenylacetic acid] | 107 ± 16 | – |
| NCc1cc(Cl)cc(Cl)c1 [compound 405, 3,5‐dichlorobenzylamine] | 30.8 ± 5.6 | – |
| OCc1cccc(N2CCCC2)c1 [compound 428, (3‐pyrrolidin‐1‐ylphenyl)methanol] | 37.2 ± 16.5 | – |
| NCc1ccc2sccc2c1 [compound 294, 1‐benzothiophen‐5‐ylmethylamine] | 49.4 ± 20 | – |
| O=C1N[C@@H](Cc2ccccc2)CO1 [compound 421, (S)‐4‐BENZYL‐2‐OXAZOLIDINONE] | 79.1 ± 9.8 | – |
| CNc1ccc(F)cc1F [compound 144, N1‐methyl‐2,4‐difluoroaniline] | 38.1 ± 11.4 | – |
| NCc1cccc(F)c1 [compound 70, 3‐fluorobenzylamine] | 67.7 ± 18.9 | – |
| Cc1ccc(-c2cnco2)cc1 [compound 259, 5‐(4‐methylphenyl)‐1,3‐oxazole] | 90.2 ± 12.5 | – |
| O=C(O)c1cc2ccccc2cn1 [compound 555, isoquinoline‐3‐carboxylic acid hydrate] | 34.9 ± 11.7 | – |
| OCc1ccc(N2CCOCC2)cc1 [compound 578, (4‐morpholin‐4‐yl‐phenyl)‐methanol] | 93 ± 7.9 | – |
| COc1cccc(OC)c1SC [compound 481, 1,3‐dimethoxy‐2‐(methylthio)benzene] | 82.6 ± 6.8 | – |
| OCc1cn2ccccc2n1 [compound 172, imidazo[1,2‐a]pyridin‐2‐ylmethanol] | 47.6 ± 14.2 | – |
| O=C(O)Cc1cc(F)cc(F)c1 [compound 359, 2‐(3,5‐difluorophenyl)acetic acid] | 95.2 ± 10.8 | – |

| Structure (SMILES) | viability at 500 µM [1] [%] | other results |
| --- | --- | --- |
| OCCc1c[nH]c2ccccc12 [compound 277, 2‐(1H‐indol‐3‐yl)ethan‐1‐ol] | 31.4 ± 8.9 | – |
| COC(=O)Cc1ccsc1 [compound 238, methyl 2‐(3‐thienyl)acetate] | 103 ± 4 | – |
| O=C(O)Cc1ccccc1O [compound 201, 2‐(2‐hydroxyphenyl)acetic acid] | 87.4 ± 8.7 | – |
| O=C(O)C1CCCO1 (centres unmarked) [compound 42, tetrahydro‐2‐furancarboxylic acid] | 108 ± 16.4 | – |
| Nc1cccc(N)c1 [compound 461, benzene‐1,3‐diamine dihydrochloride] | – | viability at 500 µM [2]: 97.3 ± 16.9% |
| Cc1ccccc1NC(N)=S [compound 326, N‐(2‐methylphenyl)thiourea] | – | viability at 500 µM [2]: 90.2 ± 6.3% |
| OCc1ccccc1C(F)(F)F [compound 407, [2‐(trifluoromethyl)phenyl]methanol] | 101 ± 9.7 | – |
| NC(=S)Nc1ccncc1 [compound 215, N‐(4‐pyridyl)thiourea] | 119 ± 17 | – |
| OC1CCC(C(F)(F)F)CC1 (centres unmarked) [compound 333, 4‐(trifluoromethyl)cyclohexan‐1‐ol] | 99.1 ± 5.6 | – |
| CCc1ccc(CNC)cc1 [compound 180, N‐(4‐ethylbenzyl)‐N‐methylamine] | 102 ± 4.4 | – |
| Nc1ccccc1N1CCOCC1 [compound 436, 2‐morpholinoaniline] | 83 ± 6.1 | – |
| N#Cc1ccc(N)cc1C(F)(F)F [compound 500, 4‐amino‐2‐(trifluoromethyl)benzonitrile] | 27 ± 2.3 | – |
| c1ccc(-c2c[nH]cn2)cc1 [compound 149, 4‐phenyl‐1H‐imidazole] | 86.3 ± 13.6 | – |
| OCc1nc2ccccc2[nH]1 [compound 169, 1H‐benzimidazol‐2‐ylmethanol] | 86.5 ± 2.7 | – |
| OCc1cccc(N2CCOCC2)c1 [compound 579, (3‐morpholinophenyl)methanol] | 69.7 ± 12.3 | – |
| Cn1ccc(N)n1 [compound 8, 1‐methyl‐1H‐pyrazol‐3‐amine] | 93.4 ± 0.9 | – |
| O=C1CCOc2ccc(F)cc21 [compound 318, 6‐fluorochroman‐4‐one] | 88.6 ± 12.2 | – |
| Nc1cccc(-c2cnco2)c1 [compound 267, 3‐(1,3‐oxazol‐5‐yl)aniline] | 71.1 ± 9.8 | – |
| OCc1cccc(-c2ccncc2)c1 [compound 491, (3‐pyrid‐4‐ylphenyl)methanol] | 53.1 ± 10.8 | – |
| OCc1ccc2occc2c1 [compound 168, 1‐benzofuran‐5‐ylmethanol] | 34.7 ± 8 | – |
| Cc1cc(C(=O)O)c(-c2ccccc2)o1 [compound 635, 5‐methyl‐2‐phenyl‐3‐furoic acid] | 40.5 ± 7.4 | – |
| N#Cc1ccc(-c2ccccc2)nc1 [compound 456, 6‐phenylnicotinonitrile] | 31.1 ± 4.1 | – |
| NCc1ccc(-c2ccco2)cc1 [compound 373, [4‐(2‐furyl)phenyl]methylamine] | 50.5 ± 24.8 | – |
| Fc1ccc(N2CCNCC2)cc1 [compound 457, 1‐(4‐fluorophenyl)piperazine] | 32.3 ± 5.6 | – |
| CCOC(=O)C1CSCCN1 (centres unmarked) [compound 402, ethyl thiomorpholine‐3‐carboxylate] | 114 ± 12.9 | – |
| OCc1ccc(-c2ccco2)cc1 [compound 383, [4-(2-furyl)phenyl]methanol] | 33 ± 7.2 | viability at 500 µM [3]: 33 ± 7.2%; IC50 (read-out: T. brucei ED50, ED50 ± SD (n = 4)): 187 ± 17 µM |

| Structure (SMILES) | viability at 500 µM [1] [%] | other results |
| --- | --- | --- |
| NC1Cc2ccccc2C1 [compound 104, indan‐2‐amine] | 28.9 ± 6.4 | – |
| OCc1ccc(-c2cccnc2)cc1 [compound 489, (4‐pyrid‐3‐ylphenyl)methanol] | 82.7 ± 13.7 | – |
| O=C1CCSc2ccc(Cl)cc21 [compound 609, 6-chloro-3,4-dihydro-2H-1-benzothiin-4-one] | 86.3 ± 6.6 | viability at 500 µM [3]: 86.3 ± 6.6% |
| O=C(O)CCc1cccs1 [compound 237, 3‐(2‐thienyl)propanoic acid] | 85.3 ± 11.8 | – |
| OC12CC3CC(CC(C3)C1)C2 [compound 209, adamantan‐1‐ol] | 101 ± 11.5 | – |
| Cc1nc(-c2cccc(N)c2)cs1 [compound 546, 3‐(2‐methyl‐1,3‐thiazol‐4‐yl)aniline] | 52.8 ± 15.6 | – |
| Cc1cc(O)nc2ccccc12 [compound 258, 4‐methyl‐2‐quinolinol] | 92.9 ± 6.8 | – |
| N#Cc1ccc(OC2CCOCC2)cc1 [compound 645, 4‐(tetrahydropyran‐4‐yloxy)benzonitrile] | 121 ± 12.5 | – |
| O=C(O)CCC(=O)c1cccs1 [compound 478, 4-oxo-4-(2-thienyl)butanoic acid] | 104 ± 13.1 | viability at 500 µM [3]: 104 ± 13.1% |
| Nc1cccc(Cn2ccnc2)c1 [compound 377, 3‐(1H‐imidazol‐1‐ylmethyl)aniline] | 93.8 ± 15.8 | – |
| Nc1ccc(-c2cccnc2)cc1 [compound 347, 4‐pyridin‐3‐ylaniline] | 26.4 ± 5.2 | – |
| CN1CCN(Cc2ccccc2N)CC1 [compound 670, 2‐[(4‐methylpiperazin‐1‐yl)methyl]aniline] | 52.6 ± 17.6 | – |
| N#CCc1ccccn1 [compound 46, 2‐(2‐pyridyl)acetonitrile] | 44.1 ± 16.1 | – |
| CCOC(=O)c1[nH]c(C)cc1C [compound 330, ethyl 3,5‐dimethyl‐1H‐pyrrole‐2‐carboxylate] | 90.7 ± 1.7 | – |
| OCc1cccnc1N1CCCC1 [compound 440, [2‐(1‐pyrrolidinyl)‐3‐pyridinyl]methanol] | 44.3 ± 11.8 | – |
| NC1CCSCC1 [compound 45, tetrahydrothiopyran‐4‐ylamine] | 103 ± 13.8 | – |
| COC(=O)c1ccoc1C [compound 132, methyl 2-methyl-3-furoate] | 34.3 ± 8.4 | viability at 500 µM [3]: 34.3 ± 8.4% |
| Cc1cc(N)[nH]n1 [compound 6, 3‐methyl‐1H‐pyrazol‐5‐amine] | 94.9 ± 3.6 | – |
| OCc1ccc(-c2ccco2)s1 [compound 458, [5‐(2‐furyl)thien‐2‐yl]methanol] | 71.4 ± 18 | – |
| c1cnc2c(c1)OCCN2 [compound 118, 3,4‐dihydro‐2H‐pyrido[3,2‐b][1,4]oxazine] | 75.6 ± 3.7 | – |
| OCc1nc2ccccc2s1 [compound 312, 1,3‐benzothiazol‐2‐ylmethanol] | 73.2 ± 12.2 | – |
| NC(=S)c1ccsc1 [compound 148, thiophene‐3‐carbothioamide] | 74.6 ± 6.6 | – |
| Cc1ccc2cc(C(=O)O)ccc2n1 [compound 510, 2‐methyl‐6‐quinolinecarboxylic acid] | 91.2 ± 16.1 | – |
| COC(=O)c1cccc(N)c1 [compound 194, methyl 3‐aminobenzoate] | 89.8 ± 7 | – |
| Oc1ccc(F)c(Cl)c1 [compound 160, 3‐chloro‐4‐fluorophenol] | 50.8 ± 16.5 | – |
| NS(=O)(=O)c1ccc(F)cc1F [compound 576, 2,4‐difluorobenzenesulfonamide] | 39.2 ± 8 | – |
